# Screen size: about 310,000 compounds; about 2,200 (0.71%) showed an effect of 50% or more. The effect is printed as a negative number. The list shows a part of the results.
# Target: human ether-à-go-go-related gene (hERG) potassium channel (human, UniProt Q12809)
# Experiment: primary screen, population patch clamp on CHO cells stably expressing hERG
# Chain of human ether-à-go-go-related gene (hERG) potassium channel (Q12809 whole entry, looked up): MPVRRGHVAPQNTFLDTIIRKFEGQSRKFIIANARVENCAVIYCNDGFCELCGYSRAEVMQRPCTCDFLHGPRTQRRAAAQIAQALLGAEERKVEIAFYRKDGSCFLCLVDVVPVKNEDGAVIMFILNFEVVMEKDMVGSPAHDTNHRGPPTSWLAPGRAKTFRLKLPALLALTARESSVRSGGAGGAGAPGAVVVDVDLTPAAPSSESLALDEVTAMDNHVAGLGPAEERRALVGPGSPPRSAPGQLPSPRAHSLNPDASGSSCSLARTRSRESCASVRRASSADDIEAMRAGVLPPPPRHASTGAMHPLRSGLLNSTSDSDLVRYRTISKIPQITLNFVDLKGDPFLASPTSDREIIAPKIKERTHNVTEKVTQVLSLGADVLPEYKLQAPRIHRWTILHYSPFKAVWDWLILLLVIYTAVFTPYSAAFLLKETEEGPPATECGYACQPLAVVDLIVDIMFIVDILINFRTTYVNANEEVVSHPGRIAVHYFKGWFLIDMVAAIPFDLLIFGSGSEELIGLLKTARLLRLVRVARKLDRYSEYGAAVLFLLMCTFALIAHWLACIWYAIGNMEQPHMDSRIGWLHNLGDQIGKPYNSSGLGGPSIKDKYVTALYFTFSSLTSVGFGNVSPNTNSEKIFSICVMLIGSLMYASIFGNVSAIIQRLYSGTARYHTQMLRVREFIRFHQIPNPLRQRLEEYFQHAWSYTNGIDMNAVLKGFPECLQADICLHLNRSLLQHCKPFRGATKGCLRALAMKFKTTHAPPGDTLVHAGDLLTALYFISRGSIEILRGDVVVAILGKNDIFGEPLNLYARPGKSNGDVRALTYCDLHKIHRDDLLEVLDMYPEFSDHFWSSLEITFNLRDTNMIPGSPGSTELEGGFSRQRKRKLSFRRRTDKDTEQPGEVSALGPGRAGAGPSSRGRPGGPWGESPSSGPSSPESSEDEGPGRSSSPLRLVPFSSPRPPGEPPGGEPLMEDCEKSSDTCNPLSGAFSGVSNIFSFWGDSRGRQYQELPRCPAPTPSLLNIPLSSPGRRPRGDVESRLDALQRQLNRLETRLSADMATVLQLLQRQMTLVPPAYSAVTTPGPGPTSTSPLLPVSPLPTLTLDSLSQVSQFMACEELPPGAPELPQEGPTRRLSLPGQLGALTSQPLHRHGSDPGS
row,Structure (SMILES),"hERG current change (%, negative = inhibition) at 1uM"
1,O=C(NN=C1CCN(Cc2ccccc2)CC1)C(O)c1ccccc1 (centres unmarked),3.77%
2,CCNC(=O)CC1C(=O)N(c2ccc(OC)cc2)C(=O)N1CCOC (centres unmarked),10.1%
3,CC(=NCc1cccnc1)c1c(O)n(-c2ccc(C)cc2)c(=O)[nH]c1=O,-0.929%
4,Cn1c(=O)oc2cc(S(=O)(=O)NCc3ccc(F)cc3)ccc21,-14.6%
5,O=C(NCC1CCN(c2ccc(S(=O)(=O)N3CCOCC3)cc2)CC1)c1cccc(Cl)c1,12.3%
6,COc1ccc(-c2nc(CS(=O)CC(=O)NC3CCCc4ccccc43)c(C)o2)cc1OC (centres unmarked),9.45%
7,CC(C)OC(=O)c1cn(-c2ccccc2)nc1-c1ccco1,11.7%
8,Cc1ccc2occ(C(c3nnnn3C3CCCC3)N3CCN(C(=O)c4ccco4)CC3)c(=O)c2c1 (centres unmarked),1.05%
9,CCCCOP(=O)(OCCCC)C(O)c1ccc(F)cc1 (centres unmarked),10%
10,COc1ccc(CCN2C(=O)C3C4CC(C5C(C(=O)N/N=C\c6ccc(Cl)cc6)=NOC45)C3C2=O)cc1OC (centres unmarked),-12.8%
11,Cn1c(SCc2nc(-c3ccccc3)no2)nnc1-c1cccs1,3.52%
12,CC(C)(C)C(=O)OCCn1c(=O)c2cc3c(=O)n(CCOC(=O)C(C)(C)C)c(=O)c3cc2c1=O,18%
13,COCC1CCCN(Cc2nc(Cc3ccccc3)no2)C1 (centres unmarked),11.6%
14,Cc1cc2oc(C(=O)N(Cc3ccccc3)C3CCS(=O)(=O)C3)c(C)c2cc1C (centres unmarked),16.2%
15,Cc1noc(C)c1C(=O)NCc1ccco1,7.86%
16,CCOc1ccc(S(=O)(=O)NNC(=S)Nc2ccc(Br)cc2)cc1,5.39%
17,Cc1cc(-c2ccc(C)c(S(=O)(=O)NCC3CCN(Cc4ccc(F)cc4)CC3)c2)on1,-7.78%
18,c1ccc(C(Cc2nc(-c3ccncc3)no2)c2ccccc2)cc1,12.5%
19,Cn1ccnc1Sc1nc2ccccc2nc1NS(=O)(=O)c1ccccc1,17.4%

row,Structure (SMILES),"hERG current change (%, negative = inhibition) at 1uM"
1,Cc1[nH]c(=O)c(C#N)c(C)c1CCC(=O)NCc1cccc(C(F)(F)F)c1,18.4%
2,O=C(CSc1nccc(=O)[nH]1)c1ccccc1Br,4.66%
3,Cc1[nH]c(C)c(S(=O)(=O)N(Cc2ccccc2)C(C)C)c1C(=O)N1CCCC1,9.26%
4,O=C(CCNc1ccc(Br)cc1)c1cccc([N+](=O)[O-])c1,11.1%
5,Cc1cccc(-n2c(Cc3cc(=O)[nH]c(=O)[nH]3)nnc2SCC(=O)N2CCc3ccccc32)c1,4.78%
6,O=C(C(Cc1ccccc1)n1cccc1)N1CCc2ccccc21 (centres unmarked),8.86%
7,CSCCC(NC(=O)c1ccccc1)C(=O)N1CCCCCCC1 (centres unmarked),5.59%
8,CC1CCCCC12NC(=O)N(CC(=O)c1ccc3c(c1)OCO3)C2=O (centres unmarked),-1.54%
9,O=C(c1cccc(Oc2c(Cl)cccc2[N+](=O)[O-])c1)N1CCCCC1,10.5%
10,O=C(C(c1ccccc1)c1ccccc1)N(Cc1ccco1)C1CCS(=O)(=O)C1 (centres unmarked),10%
11,N#C/C(=C\c1cccnc1)c1nc2ccccc2[nH]1,13%
12,CCC(=O)OCC(=O)N=c1sccn1Cc1ccc(C)cc1,11.2%
13,CN1C(=S)N(c2ccccc2)C(=O)/C1=C/c1ccco1,10.6%
14,CCOc1cc(C2NC(=O)NC2=O)ccc1O (centres unmarked),17.3%
15,COCCCNC(=O)/C(C#N)=C/c1c(N2CCN(c3ccccc3)CC2)nc2ccccn2c1=O,3.99%
16,CCCc1cc(CNC(=O)C2CCC(=O)N(Cc3ccccc3OC)C2)on1 (centres unmarked),12.2%
17,CCOC(=O)CNc1nc(C(C)(C)C)nc2c1nnn2Cc1ccccc1Cl,9.99%
18,Cc1cnc(NC(=O)CC2CCCC2)s1,14.3%
19,CC(=O)N1CCN(c2nc3ccc(Br)cc3s2)CC1,-3.45%

row,Structure (SMILES),"hERG current change (%, negative = inhibition) at 1uM"
1,O=C(CCCn1cnc([N+](=O)[O-])n1)Nc1ccc(F)c(Cl)c1,9.69%
2,CC1CCCCC1NC(=O)c1cccc(N2C(=O)C3C4C=CC(C4)C3C2=O)c1 (centres unmarked),11.8%
3,CC(C)(C)OC(=O)Nc1ccc([C@H](NC(=O)OC(C)(C)C)C(=O)OC(C)(C)C)cc1,10.1%
4,N#C/C(=C\c1ccc(O)c(Br)c1)C(=O)NCc1ccccc1,4.88%
5,COC(=O)c1c(C)nc2c(c(SC)nn2-c2ccccc2)c1N,1.51%
6,CCOC(=O)c1c(C)[nH]c(NC(=O)Nc2c(C)n(C)n(-c3ccccc3)c2=O)c1C,15.2%
7,CC(C)N1CCC(N2CCN(Cc3nc4ccccc4s3)CC2CCO)CC1 (centres unmarked),3.75%
8,Fc1ccc(NC(=S)Nc2ccc(F)c(Cl)c2)cc1Cl,7.52%
9,Cc1ccc(COc2ccc(/C=N/O)cc2)cc1,11.5%
10,O=C(c1ccc(CS(=O)(=O)c2ccc(Br)cc2)o1)N1CCN(c2ccc(F)cc2)CC1,8.86%
11,O=C(O)c1ccccc1SCCS(=O)(=O)c1ccc(Cl)cc1Cl,-4.25%
12,Cc1cccnc1NC(=O)C1c2ccccc2Oc2ccccc21,0.998%
13,Cc1cc(S(=O)(=O)N2c3ccc(F)cc3CCC2C)ccc1-n1cnnn1 (centres unmarked),3.04%
14,CCOC(=O)C1C(=O)C=C(/C=C/c2ccccc2)CC1c1ccc(Cl)cc1 (centres unmarked),-1.42%
15,CC(C)OC(=O)c1ccc(COc2ccc3ccc(=O)oc3c2)o1,3.2%
16,O=C(CSc1ccccn1)Nc1cccc2ccccc12,16.8%
17,COC(=O)CCSc1cc([N+](=O)[O-])cc2c1c(C1OCCS1)nn2-c1ccccc1 (centres unmarked),6.4%
18,OCCNC(=S)c1ccccc1,12.8%

# From PMC4336329 (PLoS ONE, 2015)
